Source: PubChem BioAssay AID651820 (National Center for Advancing Translational Sciences (NCATS), 2012)
Hit rate of the full screen: of about 340,000 compounds, about 12,000 (3.5%) were called active. This list was built around the results that the source calls inconclusive (neither active nor inactive); the mix of calls is not that of the screen. Calls follow the shape of the dose curve; as a rule, active = well fitted inhibition curve with a large enough effect; inconclusive = small, poorly fitted or top-dose-only effect, or another doubt; inactive = no such curve, though single readings can be large or run the other way. Potencies of inconclusive entries are left out as doubtful fits.

Assay: qHTS Assay for Inhibitors of Hepatitis C Virus (HCV)
Conditions: Huh7.5.1 HCVcc-Cre (HCVcc is cell-culture hepatitis C virus) infection, luciferase reporter, 44 h; series mostly up to 41.8 µM
In short: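 Infectious HCVcc-Cre (~0.5 moi) was added to cells just after compound, with cells seeded 4 h earlier at 1,000 per well. Luciferase activity after 44 h culture reported infection; substrate was incubated 15 min at room temperature before reading.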
Potency is read from the fitted curve at half-maximal effect; tags tell the direction and shape of the fitted curve.

| Structure (SMILES) | Potency |
| --- | --- |
| Cc1ccc(CNC(=O)C2CCCCN2S(=O)(=O)c2ccccc2)cc1 (stereo unspecified) | inconclusive [inhibitor, single point] |
| COc1ccc(CN2C(=O)c3cccnc3C2Nc2cc(Cl)c(OC)cc2OC)cc1 (stereo unspecified) | inconclusive [inhibitor, single point] |
| CCNC1=C(Cl)C(=O)c2ccccc2C1=O | inconclusive [inhibitor, partial curve, poor fit] |
| Cc1cccc(NC(=O)c2ccc(S(=O)(=O)NCc3cccnc3)cc2)c1C | inconclusive [inhibitor, single point] |
| COc1ccccc1-n1c(=O)[nH]c2c(C(N)=O)nc(CC(C)C)nc21 | inactive |
| CC(C)=CCC(C)(C)C1OCCN1C(=O)c1ccccc1 (stereo unspecified) | inconclusive [inhibitor, single point] |
| CN(C)S(=O)(=O)c1cccc2c1C(=O)c1ccccc1C2=O | inactive |
| Cc1nnc2c(SC(C)C)nc3ccccc3n12 | inconclusive [inhibitor, single point] |
| O=C(Nc1ccc(Nc2ccccc2)cc1)C(Cl)(Cl)Cl | inconclusive [inhibitor, full curve, poor fit] |
| CCCCn1c(N)c(N(CC(C)C)C(=O)C2CCN(S(=O)(=O)c3ccc(Cl)cc3)CC2)c(=O)[nH]c1=O | inactive |
| Cc1ccc(NC(=O)C2CCCN(S(=O)(=O)c3ccc4[nH]c(=O)ccc4c3)C2)cc1C (stereo unspecified) | inactive |
| Cc1ccc(C(=O)Nc2nc(C)c(C(=O)N(C)C)s2)o1 | inactive |
| COCCCN1C(=O)c2ccc(C(=O)NCCc3ccccc3)cc2C1=O | inactive |
| COc1ccccc1NC(=S)NCc1ccco1 | inactive |
| Cc1cc(C)cc(C(=O)Nc2ccc(NC(=O)c3cccs3)cc2)c1 | inconclusive [inhibitor, single point] |
| CCCN(CCC)S(=O)(=O)c1ccc(C(=O)Nc2ccc(OCC(=O)N3CCOCC3)cc2)cc1 | inconclusive [inhibitor, single point] |
| CCOC(=O)c1ccc(NC(=S)N(CCCN2CCCC(C)C2)Cc2ccco2)cc1 (stereo unspecified) | active: 10 µM |
| CCOc1ccc2nc(SCC)[nH]c2c1 | inactive |
| CCOC(=O)C(O)(c1ccc(NC(=O)c2ccc(Cl)c(Cl)c2)cc1)C(F)(F)F (stereo unspecified) | inconclusive [inhibitor, partial curve, poor fit] |
| Nc1cccc(NC(=O)c2cccs2)c1 | inactive |
| Cc1cc(C(=O)COC(=O)CC2Sc3ccccc3NC2=O)c(C)n1-c1cccc(C(F)(F)F)c1 (stereo unspecified) | inconclusive [inhibitor, single point] |
